For 167 variants, nonsense suppression results are on record in the RNAGym collection of RNA variant scans (doi:10.1101/gad.245936.114).

B1: tRNA (parent)
chain: CUCUCGGUAGCCAAGUUGGUUUAAGGCGCAAGACUUUAAUUUAUCACUACGAAAUCUUGAGAUCGGGCGUUCGACUCGCCCCCGGGAGAUUUUUUCCUCGAGCAA

Variants at the background level are over-represented here.

Variants of B1 are the subject of this data set. Put plainly: nonsense suppression (GFP-seq) (ratio to wild type); higher = more function; SUP4oc tRNA, yeast GFP reporter sort-seq. The method, boiled down:
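Raffinose/galactose medium with 80 mg/L adenine was used to grow yeast carrying genome-integrated tRNA variants (~3% random-mutation library), RFP, and a galactose-driven GFP ochre reporter. Cells went into GFP/RFP bins, which were Illumina-sequenced, and variants with ≥100 reads and ≥30 cells were scored. Nonsense suppression (GFPSEQ) is the per-bin median GFP/RFP weighted by estimated cell share and expressed relative to the unmutated parent tRNA.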
On to G18U U58G C68A, for which the nonsense suppression is ≤ 0.026.
Turning to A13U A31C, the nonsense suppression was ≤ 0.026.
As for U63C A74G, the figure is 0.0264; as for A9U C11G G18U C75A C83A, ≤ 0.026; as for C12G C83U, ≤ 0.026.
For the variant C11A G84C G86C, the nonsense suppression is ≤ 0.026.
As for G32C U63C, the figure is ≤ 0.026; as for A54U A74C, ≤ 0.026.
Regarding A60G U63A, the nonsense suppression worked out at 0.163.
With C3A G15U G25A the figure was ≤ 0.026.
With C3U A60U the figure was 0.55; with A14U C75U, ≤ 0.026; with A23U U71G A74G, ≤ 0.026.
C5U C68U: the nonsense suppression was ≤ 0.026.
As to C34G G61A, the nonsense suppression came out at 0.0334.
With C1U G18C G32U C77G the figure was ≤ 0.026; with C1A G7A C72U C80G, ≤ 0.026; with C75G G84C, ≤ 0.026.
C29G G69U: the nonsense suppression was ≤ 0.026.
As for U8A U20C, the figure is ≤ 0.026; as for G7A A31U U71C, ≤ 0.026.
In the case of U4C G69U G86C, the nonsense suppression is ≤ 0.026.
As for G19C A31U, the figure is ≤ 0.026; as for U17C A60C, 0.196; as for U8C C11G A23U G69C, ≤ 0.026.
With C56U G61C C82G the figure was ≤ 0.026; with G7A U63A A87G, ≤ 0.026; with U2A G15C U55G U70C C77A, ≤ 0.026.
With C1U C3A A74G C83A the figure was ≤ 0.026.
As to G6A A30G G66C C75U, the nonsense suppression was ≤ 0.026.
As for G15U A23G C29A C56A, the figure is ≤ 0.026.
As for G32U U57A G61A, the figure is ≤ 0.026; as for C3G A9C U21A A23U, ≤ 0.026.
With C5A A14C U58G, the nonsense suppression was ≤ 0.026.
Take A14G G15A C68G: the nonsense suppression is ≤ 0.026.
With G32A C72U C82G A89G the figure was ≤ 0.026; with U2C U20A, ≤ 0.026; with G18A A87G, 0.036.
As for C1U C27U, the figure is ≤ 0.026.
With C72U C75G the figure was ≤ 0.026; with C3U U58C, 0.202.
Take A9G C11G A33G U76A: the nonsense suppression was ≤ 0.026.
As for U57A U70G, the figure is ≤ 0.026; as for C56U C68U, ≤ 0.026.
With U8C G26A the figure was ≤ 0.026; with A9G G15A A23U U63A, ≤ 0.026.
With U8G G19U C81A the figure was ≤ 0.026.
With C3A U35C G73A A89C, the nonsense suppression is ≤ 0.026.
With C27U G65A C77U the figure was ≤ 0.026.
In the case of U22C U55A C82U G86U, the nonsense suppression was ≤ 0.026.
For the variant U2C C11U C79A, the nonsense suppression was ≤ 0.026.
Take C11U G28U G59A A60C G85C: the nonsense suppression is ≤ 0.026.
As for G66U U76A C80G G86U, the figure is ≤ 0.026; as for C72G G88U, ≤ 0.026; as for U2A G66C, ≤ 0.026.
With C1U G18A U21G C27U the figure was ≤ 0.026; with A33G C64G U76A, ≤ 0.026; with U55A C80A, ≤ 0.026.
As for U35A G69C C77U, the figure is ≤ 0.026; as for C1U G15A A23U C68A, ≤ 0.026.
As for C12U G85U, the nonsense suppression worked out at 0.0919.
As for C11U G26A A60U C80A, the figure is ≤ 0.026; as for G7U G25U, ≤ 0.026.
With C11G C12A A31U U57G G66U the figure was ≤ 0.026.
Regarding G10U G78C, the nonsense suppression is ≤ 0.026.
As for G7C A9U U17G C77U G88C, the figure is ≤ 0.026; as for U2G U8A C75A, ≤ 0.026.
As for G19A C34A G59A G73U C82U, the figure is ≤ 0.026; as for C11U A23G A31G U76A, ≤ 0.026.
With A14U G15C A60C C79U the figure was ≤ 0.026.
Consider U57C C68G C75G, for which the nonsense suppression was ≤ 0.026.
With G26C U57A A89C the figure was ≤ 0.026; with C11U U21A A89G, ≤ 0.026; with U20C A31G G86C, ≤ 0.026.
As for A9C A31G, the figure is 0.857.
For A74G C75U, the nonsense suppression is ≤ 0.026.
As for A24G C79U G86C, the figure is ≤ 0.026.
With C56G C77A the figure was ≤ 0.026; with C27U G28A C64U, ≤ 0.026; with C12G A33U U70G, ≤ 0.026.
With G15C A33U G73U C75U the figure was ≤ 0.026; with G10A U20G C68A, ≤ 0.026; with U8G G66A, ≤ 0.026.
C1A A30G G85A: the nonsense suppression was 0.0742.
Take C5U A24G: the nonsense suppression was ≤ 0.026.
With C5A C34G G73C the figure was ≤ 0.026.
With A23G G25A G88C the figure was ≤ 0.026; with G18U C79A, ≤ 0.026.
With U4C G28U U76A the figure was ≤ 0.026; with C75A G84A, ≤ 0.026.
On to C12U C64A, for which the nonsense suppression was ≤ 0.026.
With G7U G25C G67A the figure was ≤ 0.026; with C3U U4C A9C, 1.11.
Regarding C1U U16G A30G A54C G67U C83A, the nonsense suppression was ≤ 0.026.
Turning to C12A G28U C81U, the nonsense suppression was ≤ 0.026.
For G66A U70C A87G, the nonsense suppression is ≤ 0.026.
In the case of A60C A62U, the nonsense suppression is 0.0785.
As for U2G C83A, the figure is ≤ 0.026.
As to A13C U35G U57C G65C, the nonsense suppression is ≤ 0.026.
With C11A U20G C72G C79G the figure was ≤ 0.026; with C5U A62C G67U, ≤ 0.026; with A24C A30U A54C U58G C75A, 0.783.
Regarding G19A G32A G88C, the nonsense suppression is ≤ 0.026.
As for C1G C3G G25A C27U, the figure is ≤ 0.026; as for C1A U35G, ≤ 0.026; as for G10U G28A G73C A87C, ≤ 0.026.
As for C29A A62U C83G, the figure is ≤ 0.026; as for G61C U63C, 0.196; as for U8A C27U C34G C56A G85C, ≤ 0.026.
Regarding U2C G67U, the nonsense suppression is ≤ 0.026.
For C3G C12G G73A, the nonsense suppression was ≤ 0.026.
With U71A A89G the figure was ≤ 0.026.
With G26U C82A G84U the figure was ≤ 0.026.
With G26A G32A the figure was ≤ 0.026; with U8A A62U, ≤ 0.026.
Take U63C A74G G78A: the nonsense suppression was ≤ 0.026.
As for U17G G25C C72A, the figure is ≤ 0.026; as for G66U A87C, ≤ 0.026; as for C56U U70C C72G G78U, ≤ 0.026.
As for U17G G19A G26A, the figure is ≤ 0.026; as for A54U, 1.04.
For A23U A62U U71G, the nonsense suppression is ≤ 0.026.
As for C1G A60G A62G G85A G86C, the figure is ≤ 0.026; as for U2G C75A G86A, ≤ 0.026.
With C5U C11U U57C the figure was ≤ 0.026.
In the case of G18U G69C G85C, the nonsense suppression was ≤ 0.026.
With G10C U21G C68G C82A the figure was ≤ 0.026.
As for C5U A33C C80A A87U, the figure is ≤ 0.026; as for U2C A23G C80A, ≤ 0.026.
With G6A C27U G88A the figure was ≤ 0.026; with G28C A31C G65A, ≤ 0.026.
For C64A G85C, the nonsense suppression was ≤ 0.026.
With A33G C75A the figure was 0.235.
With U21G U57G the figure was ≤ 0.026; with C12U A74C, ≤ 0.026.
For U21G U63A, the nonsense suppression stood at 0.636.
With A54G G69A the figure was ≤ 0.026; with A24U A74G, ≤ 0.026.
In the case of G7C A14C G61U A74U A87G, the nonsense suppression is ≤ 0.026.
Turning to A31G A54U G59A G61C G88A, the nonsense suppression is ≤ 0.026.
With U57G G73U the figure was ≤ 0.026; with U4A C11G G26C G61A C83G, ≤ 0.026; with G61A A87U, 0.181.
As for G6A G19C, the figure is ≤ 0.026; as for U35G C68A G69A C75A, ≤ 0.026.
With U16C G19U U21G U22A U55C G85A the figure was ≤ 0.026; with U2A A31U A33G U58A, ≤ 0.026; with G6A G28C, 0.0666.
As to U16A G84C, the nonsense suppression was ≤ 0.026.
G7U A9U A87C: the nonsense suppression is ≤ 0.026.
With C3G G7U A23C G86C the figure was ≤ 0.026; with C29A G67U, ≤ 0.026.
As for A24U A30G U57G G67U, the figure is ≤ 0.026.
With U8C U22A the figure was ≤ 0.026.
In the case of C3A A23C G26A U58A G78C, the nonsense suppression is ≤ 0.026.
With U8A A9G C27A C79G G86A the figure was ≤ 0.026; with A14U U22C G67C, ≤ 0.026.
With C11A U16C the figure was ≤ 0.026; with C3G G25C G59A C77A G85C, ≤ 0.026.
Turning to U57C C72U C75U, the nonsense suppression is ≤ 0.026.
With U2A C5A G18C A87U the figure was ≤ 0.026; with U2G C3A G65U, ≤ 0.026.
With C5U C27A A30G A60G the figure was ≤ 0.026.
As for A14C G25A A30U, the figure is ≤ 0.026; as for C29G C75G, ≤ 0.026.
Turning to C1G A33C C68G A74G, the nonsense suppression is ≤ 0.026.
As for G10A U57A, the figure is ≤ 0.026.
